Here are results for 28 molecules from the antibiotic and cytotoxicity screens of Wong et al. (2023).

Some of the results follow.

The experiment concerns HepG2. In words: cytotoxicity call (relative viability < 0.9). As to conditions: 10 µM.
Consider `C[C@@H]1CN([C@@H](C)CO)C(=O)c2cccc(NC(=O)Nc3ccc(F)cc3)c2O[C@@H]1CN(C)S(=O)(=O)c1cn(C)cn1`, for which the cytotoxicity call is “inactive”.

Turning to `Cc1ccc(S(=O)(=O)N(C)C[C@H]2OCCCC[C@H](C)Oc3ccc(NC(=O)Nc4cccc5ccccc45)cc3C(=O)N([C@H](C)CO)C[C@@H]2C)cc1`, the cytotoxicity call is “inactive”.

For `C[C@H](CO)N1C[C@H](C)[C@@H](CN(C)CC2CC2)Oc2c(NS(=O)(=O)c3ccccc3)cccc2C1=O`, the cytotoxicity call is “inactive”.

Turning to `Cc1noc(C)c1NC(=O)N(C)C[C@@H]1Oc2c(NC(=O)c3ccncc3)cccc2C(=O)N([C@@H](C)CO)C[C@H]1C`, the cytotoxicity call was “inactive”.

For `CC(C)(O)C#Cc1ccc([C@@H]2[C@H]3CN(S(C)(=O)=O)CCCCN3[C@H]2CO)cc1`, the cytotoxicity call was “inactive”.

`C[C@@H]1CCCCO[C@H](CN(C)C(=O)NC2CCCCC2)[C@@H](C)CN([C@H](C)CO)C(=O)c2cc(NC(=O)Nc3ccc(C(F)(F)F)cc3)ccc2O1`: the cytotoxicity call is “inactive”.

For the molecule `O=C(N[C@@H](c1ccccc1)c1ccc2ccccc2n1)C1CCN(CCOc2ccc(Cl)cc2)CC1`, the cytotoxicity call is “inactive”.

With `COc1ccc(C(=O)Nc2cccc(CN3C(=O)[C@]4(O[C@H](CC(=O)N(CCO)Cc5ccccc5)[C@@H]([Si](C)(C)c5ccc(OC)cc5)[C@@H]4C)c4ccccc43)c2)cc1`, the cytotoxicity call was “active”.

On to `C[C@@H]1CCCCO[C@@H](CN(C)C(=O)Nc2ccc3c(c2)OCO3)[C@@H](C)CN([C@@H](C)CO)C(=O)c2cc(NC(=O)c3ccccc3)ccc2O1`, for which the cytotoxicity call is “inactive”.

For `C[C@@H]1CN([C@@H](C)CO)C(=O)CCCn2cc(nn2)CO[C@@H]1CN(C)C(=O)CCCN(C)C`, the cytotoxicity call was “inactive”.

For `C[C@@H]1CN([C@@H](C)CO)S(=O)(=O)c2ccc(C#CC3(O)CCCC3)cc2O[C@H]1CN(C)C(=O)c1ccncc1`, the cytotoxicity call was “inactive”.

`N[C@@H](CCC(=O)N[C@@H](CCS[C@@H](CC(=O)O)C(=O)O)C(=O)NCC(=O)O)C(=O)O`: the cytotoxicity call was “inactive”.

With `COc1ccc(CN(C)C[C@H]2OCCCC[C@H](C)Oc3ccc(NS(=O)(=O)c4ccc(Cl)cc4)cc3C(=O)N([C@H](C)CO)C[C@@H]2C)cc1`, the cytotoxicity call was “inactive”.

Regarding `CC(C)NC(=O)Nc1ccc2c(c1)C(=O)N([C@@H](C)CO)C[C@H](C)[C@@H](CN(C)Cc1ccc(Oc3ccccc3)cc1)O2`, the cytotoxicity call was “inactive”.

`Cc1nnc(SCC2=C(C(=O)O)N3C(=O)[C@@H](N)[C@H]3SC2)s1`: the cytotoxicity call was “inactive”.

For `Cc1noc(C)c1NC(=O)Nc1ccc2c(c1)C(=O)N([C@H](C)CO)C[C@@H](C)[C@@H](CN(C)S(=O)(=O)c1cccs1)OCCCC[C@@H](C)O2`, the cytotoxicity call was “inactive”.

On to `Cc1ccc(S(=O)(=O)Nc2ccc3c(c2)C(=O)N([C@H](C)CO)C[C@@H](C)[C@@H](CN(C)C(=O)Cc2ccccc2)OCCCC[C@H](C)O3)cc1`, for which the cytotoxicity call was “inactive”.

On to `O=C(C[C@@H]1C[C@@H]2c3cc(NS(=O)(=O)c4ccc(F)cc4)ccc3O[C@@H]2[C@@H](CO)O1)NCc1ccncc1`, for which the cytotoxicity call was “inactive”.

Take `COc1ccccc1C#Cc1ccc2c(c1)O[C@@H](CN(C)Cc1ccncc1)[C@H](C)CN([C@@H](C)CO)S2(=O)=O`: the cytotoxicity call is “inactive”.

`COc1ccc(S(=O)(=O)N(C)C[C@@H]2Oc3ccc(NS(=O)(=O)c4ccc(C)cc4)cc3CC(=O)N([C@H](C)CO)C[C@@H]2C)cc1`: the cytotoxicity call is “inactive”.

With `COC(=O)[C@@H](Cc1ccc(-n2cc(C(=O)NO)nn2)cc1)N1CC(/C=C/C2CC2)=C[C@H]1[C@H](O)Cc1ccccc1`, the cytotoxicity call was “inactive”.

Take `CNC[C@@H]1Oc2ccc(NC(=O)Cn3cnnn3)cc2C(=O)N([C@@H](C)CO)C[C@@H]1C`: the cytotoxicity call was “inactive”.

Consider `C[C@H](CO)N1C[C@H](C)[C@@H](CN(C)CC2CC2)OCCCC[C@H](C)Oc2ccc(NC(=O)Nc3ccc(C(F)(F)F)cc3)cc2C1=O`, for which the cytotoxicity call was “inactive”.

On to `COc1ccc(S(=O)(=O)Nc2cccc3c2O[C@H](CN(C)C(=O)Nc2cccc4ccccc24)[C@@H](C)CN([C@@H](C)CO)C3=O)cc1`, for which the cytotoxicity call was “inactive”.

Take `CCc1nc2ccc(C(=O)N3CCN(S(=O)(=O)CC)CC3)cn2c1N(CCC(C)C)CCN(C)C`: the cytotoxicity call is “inactive”.

With `COc1ccc(NC(=O)N(C)C[C@@H]2OCCCC[C@H](C)Oc3ccc(NS(=O)(=O)c4ccc(Cl)cc4)cc3C(=O)N([C@H](C)CO)C[C@H]2C)cc1`, the cytotoxicity call was “inactive”.

Consider `C[C@@H]1CN([C@H](C)CO)C(=O)Cc2cc(NC(=O)CCCCCC(=O)Nc3ccccc3N)ccc2O[C@@H]1CN(C)S(C)(=O)=O`, for which the cytotoxicity call is “inactive”.

With `Cc1noc(C)c1S(=O)(=O)Nc1ccc2c(c1)C(=O)N([C@H](C)CO)C[C@H](C)[C@@H](CN(C)S(C)(=O)=O)O2`, the cytotoxicity call was “inactive”.
